According to the RNAGym collection of RNA variant scans (doi:10.1073/pnas.2313332121):
Variants at the background level are over-represented here.

B1: TPR 5TU (parent)
chain: GGAUCUUCUCGAUCUAACAAAAAAGACAAAUCUGCCACAAAGCUUGAGAGCAUCUUCGGAUGCAGAGGCGGCAGCCUUCGGUGGCGCGAUAGCGCCAACGUUCUCAACUAUGACACGCAAAACGCGUGCUCCGUUGAAUGGAGUUUAUCAUG

Variants of: B1
Test: polymerase ribozyme fitness, log enrichment relative to wild type (log ratio); higher = more active; in vitro selection for triplet polymerase activity
Procedure, shortened: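 Both subunits of a heterodimeric triplet polymerase ribozyme were given their own mutant library, built by PCR and transcribed. Each library was annealed with a biotinylated primer, the partner subunit and triplets, incubated frozen at −7 °C, and its extended constructs gel-excised, captured on streptavidin beads and amplified by RT-PCR, all in one round done in triplicate. Fitness is the logarithm of genotype enrichment relative to wild-type enrichment, with replicates averaged by inverse-variance weighting. That logarithm is base 2, and Illumina-sequenced genotypes needed ≥10 input reads and ≥1 read per output.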

Point of comparison: A21U G34A G83C, “polymerase ribozyme fitness (log ratio)” value -2.46. Against it:
- A21G G34U A97C A121G G136A A142U — lower, ≤ -4.2
- A21U C57U C93G — lower, -3.29
- A21G U77G G88C U135G G143U A147C — lower, ≤ -4.2
- A21G A52G G59U G92C A107U — lower, ≤ -4.2
- A21G G50U G59A G70A C72A C85G C93U — lower, ≤ -4.2
- A21G A52G U102A — higher, -1.09
- A21G C57A G81C A97G U101C U135C — higher, -1.99
- A21C G59A G74A C93G A98G — lower, ≤ -4.2
- A21C A30G U45A U53A A60C U90A G94U G100U — lower, ≤ -4.2
- A21U A22G G88A A97G A106C C125U — lower, ≤ -4.2
- A21U A26U C57U G84U — lower, -3.6
- A21U C38A C57U U102G A119U — lower, ≤ -4.2
- A21G A89G A115C U148G — lower, ≤ -4.2
- A21U A26G U33A A142C G143U U146G C149G — lower, ≤ -4.2
- A21U C75G G86A U101C — lower, -4.03
- A21C C32U C36G C79U A142U U148C — lower, ≤ -4.2
- A21U G25C U56A C85U C108A U134A — lower, ≤ -4.2
- A21C A49C A52C U53G G84U C95U G141A — lower, ≤ -4.2
- A21C G59A A113G — higher, -1.92
- A21C A29U A39U U55A G68C C95A C118G C125G — lower, ≤ -4.2
- A21U C32U G86C C132A C149A — lower, ≤ -4.2
- A21G C35A C43U G81A A121U A150C — lower, ≤ -4.2
- A21U A24C U56A C96U A138U — lower, ≤ -4.2
- A21U C35U G58U C87G C105G C131A — lower, ≤ -4.2
- A21G A47U A60C C87A C114U — lower, ≤ -4.2
- A21U A29C C87G A113G G141A — lower, ≤ -4.2
- A21U A47G C54U G81C G92A C95A C99U — lower, -3.94
- A21C C51A G83U G128U C131G — lower, ≤ -4.2
- A21G A91G A115U C116A — lower, -3.91
- A21U A39C U90C C95U A97U — lower, ≤ -4.2
- A21U — higher, 0.554
- A21G — higher, 0.531
- A21U G34A A91G — lower, ≤ -4.2
- A21C U33A G50A G62A U90C C95A — lower, ≤ -4.2
- A21G A52C G68A G71A U78G U90G C116U — lower, ≤ -4.2
- A21U C32U G59C A91G C93A A107U — lower, ≤ -4.2
- A21G C75G A89U C95U G128U — lower, ≤ -4.2
- A21G A26G C93U C125G G141U — lower, ≤ -4.2
- A21U A29U A39G U90G C95U — lower, ≤ -4.2
- A21C U44A C87A U135A — lower, ≤ -4.2
- A21U A37C A49G A52U A91C — lower, ≤ -4.2
- A21G A39U C75U U82A C87A A98G C118U C125U — lower, ≤ -4.2
- A21C G48A C76G U127A — lower, ≤ -4.2
- A21U C51U C76A C87U A138C — lower, ≤ -4.2
- A21G G50U U56G A73U A113U — lower, ≤ -4.2
- A21U A37C A49C U78C C103A A113G — lower, ≤ -4.2
- A21G U61A G94C C95G A121C G143C — lower, ≤ -4.2
- A21U A26C C69A G84U — lower, -3.67
- A21U A40U C85U G141A — higher, 0.05
- A21C A37G U78C G81U G88U C96U U111A U148C — lower, ≤ -4.2
- A21U A22C A28U C43U G83A A91U — lower, ≤ -4.2
- A21U C43U C99G A120G G126U — lower, ≤ -4.2
- A21G A22U G67A G86C C96U G117A — lower, ≤ -4.2
- A21G C27G U33C G62U G81U C96U C105A A113U A122U — lower, ≤ -4.2
- A21G C51U G136A A137C G141C — lower, ≤ -4.2
- A21U G50C C95U A115U — lower, ≤ -4.2
- A21U A26U U78A G83U G94C — lower, ≤ -4.2
- A21G A73G C85A C103U A122U — higher, -1.86
- A21U C35U G58A G68A A115G C118U — lower, ≤ -4.2
- A21U G42C G59C U61G G62C G67C C114A — lower, ≤ -4.2
- A21U C54U C85G A89U U90C A119U A122U C131A — lower, ≤ -4.2
- A21C U56A C87G U101C A147C — lower, ≤ -4.2
- A21U C27U A41C A47G A49C U55A G86A — lower, ≤ -4.2
- A21U C38U A52C C93U A106G U135G — lower, ≤ -4.2
- A21U C85U C131U U145G U151A — lower, ≤ -4.2
- A21C U56A — higher, -0.39
- A21C U56G G59A C72U A122U — higher, -0.846
- A21C U82A C129G U139A — lower, ≤ -4.2
- A21G A52U C85U G94U A98U C116U — higher, -1.64
- A21G C75U A98G C99G C114U — lower, ≤ -4.2
- A21C U61A G83U C105A — lower, ≤ -4.2
- A21U A41C G84A C99U A150C — lower, ≤ -4.2
- A21U C79U C93G — lower, ≤ -4.2
- A21C U55A — higher, -0.0725
- A21C G46A G48C U56A G70C G83U G124A — lower, ≤ -4.2
- A21G A29C U56A A137C — lower, ≤ -4.2
- A21C A73U A107C A121U C149U — lower, ≤ -4.2
- A21C A52G C103G — higher, -1.21
- A21C A28U G59C A97G U134C — lower, ≤ -4.2
- A21U G42C G71A G81C C93U A106U C108U U144G — lower, ≤ -4.2
- A21U A60U G100A A137C — lower, ≤ -4.2
- A21G C35A C93A G128U A137C — lower, ≤ -4.2
- A21U G58C U61G A97U A120C C131G — lower, ≤ -4.2
